The campaign covered roughly 94,000 compounds. About 4,000 (4.3%) were called active. Inconclusive means that the source gave no clear call. Such entries were picked first, then a sample of the others. Calls come from the whole dose curve; as a rule, active = well fitted inhibition curve with a large enough effect; inconclusive = small, poorly fitted or top-dose-only effect; inactive = no such curve, though single readings can be large or run the other way. A potency beside an inconclusive call is a rough fit, not a confirmed value.
Experiment: Cytotoxic Profiling in NIH 3T3 Cell Line of Diverse Libraries Using Quantitative High-Throughput Screening; note: nearly all actives have a fitted effect of over 55% in size
Conditions: NIH 3T3 viability, CellTiter-Glo ATP luminescence, 48-72 h; activity change, negative = cytotoxicity: at 96.7 µM (top of the series) unless noted; series mostly up to 96.7 µM
Procedure, shortened: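 Cytotoxicity was measured by CellTiter-Glo ATP luminescence after 48 or 72 h compound exposure at 37 °C. Mouse NIH 3T3 fibroblasts were seeded at 400 cells/well and dosed by 23 nL pin transfer.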
% is set by controls: 0 for no effect and ±100 for the full control effect; potency is the fitted concentration of half-maximal effect; tags give direction and shape of the fitted curve.

SMILES | Potency | activity change, negative = cytotoxicity | outcome
Cc1cc(CN(C)C(=O)c2csc3nc(-c4cccc(C(F)(F)F)c4)cn23)on1 | inconclusive: 44.7 µM [inhibitor, partial curve] |  | 
CCOc1ccccc1CN1CCNC(=O)C1CC(=O)NCc1ccco1 (stereo not given) |  | inactive: 0.349% | 
CC(C)c1csc(CN2CC[C@@H](c3ccc4c(c3)OCO4)[C@H](O)C2)n1 | inconclusive: 35.5 µM [inhibitor, full curve, poor fit] |  | 
O=C1NCCN2CC3(CCN(S(=O)(=O)c4ccc5c(c4)OCCO5)CC3)CC12 (stereo not given) |  | inactive: -22.1% | 
Cc1ccc(NC(=O)Cn2c(C)cc3nc4n(c(=O)c32)CCCCC4)c(Cl)c1 | inconclusive: 70.8 µM [inhibitor, single point] |  | 
O=C(c1ccco1)N1CCCCCC1CN1CCOCC1 (stereo not given) |  | inactive: -17.6% | 
Cc1nn2c(c1-c1cccnc1N1CCOCC1)N(Cc1ccc3c(c1)CCO3)CCC2 | active: 44.7 µM |  | 
Cn1ncc2c(C(=O)N3CCN(c4ncccn4)CC3)cc(-c3ccccc3F)nc21 | inconclusive: 56.2 µM [inhibitor, partial curve, poor fit] |  | 
CS(=O)(=O)N1CCCCC1c1nc(CCOCC2CCCC2)no1 (stereo not given) |  | inactive: -11% | 
COc1ccccc1N1CCN(C(=O)Cn2ccn3nc(-c4ccc(F)cc4)c(CO)c3c2=O)CC1 |  | inactive: -6.73% | 
O=C(NC1CCN(c2nccc(Nc3ccccc3F)n2)CC1)c1ccccc1F | inconclusive: 14.1 µM [inhibitor, full curve, poor fit] |  | 
Cc1ccc(C(=O)N2CCC(C(=O)N3CCC(c4nc5ccncc5[nH]4)C3)CC2)cc1 (stereo not given) |  | inactive: 3.15% | 
CC(C)c1nnsc1Cn1ncc(N(C)CCc2ccccc2)cc1=O | inconclusive: 50.1 µM [inhibitor, partial curve, poor fit] |  | 
COc1ncccc1-c1ccnc(-c2nnc(C)n2C2CCCCC2)c1 |  | inactive: -25.9% [at 138 µM] | 
O=C(Nc1cccc(-c2ccc(N3CCOCC3)nn2)c1)Nc1ccccc1F | inconclusive: 35.5 µM [inhibitor, partial curve] |  | 
O=C(CCc1c[nH]c2ccccc12)NC1CCCc2c1[nH]c1ccc(F)cc21 (stereo not given) | active: 39.8 µM |  | 
O=C(CC1CCCN(c2cn[nH]c(=O)c2)C1)NCCCc1ccccc1 (stereo not given) |  | inactive: 1.51% | 
O=C1NCCCCCCN(C(=O)C2CCCC2)[C@H]2C[C@H](C(=O)N3CCN(c4ccccn4)CC3)C[C@@H]12 |  | inactive: -12.8% | 
COCCCNc1nc2c(S(=O)(=O)c3ccc(C)c(C)c3)nnn2c2ccccc12 | inconclusive: 28.2 µM [inhibitor, partial curve, poor fit] |  | 
CCN1CCC(CC(=O)N2CCC3(CC2)NCCc2c3[nH]c3ccccc23)CC1 | inconclusive: 50.1 µM [inhibitor, partial curve, poor fit] |  | 
O=C(Cc1ccccc1Cl)N1CCC(c2n[nH]c(=O)n2Cc2ccc(F)cc2)CC1 | inconclusive: 50.1 µM [inhibitor, partial curve, poor fit] |  | 
CC(C)C[C@@H]1N[C@H](C(=O)N2CCC(O)(c3ccccc3)CC2)Cc2cn(C)c3cccc1c23 | active: 31.6 µM |  | 

SMILES | Potency | activity change, negative = cytotoxicity | outcome
Cc1ccc(Nc2ccnc(N3CCN(C(=O)c4cccc(Cl)c4)CC3)n2)cc1 | inconclusive: 10 µM [inhibitor, full curve, poor fit] |  | 
CCNC(=O)c1cccnc1OC1CCN(C(=O)c2ccccc2Cl)C1 (stereo not given) |  |  | inactive
O=C(C1CCCN(Cc2cccc(-c3ccc(F)cc3F)c2)C1)N1CCCCC1 (stereo not given) | inconclusive: 50.1 µM [inhibitor, partial curve, poor fit] |  | 
COc1cccc(CNC(=O)c2ccc3nnc(-c4ccc(F)cc4)n3c2)c1 | inconclusive: 44.7 µM [inhibitor, partial curve, poor fit] |  | 
O=S(=O)(c1ccccc1F)N1CC(n2cnnc2-c2ccccc2)C1 | inconclusive: 79.4 µM [inhibitor, partial curve, poor fit] |  | 
COc1ccc(-c2cc(-c3cnn(C)c3)cn3cncc23)cc1 | active: 35.5 µM |  | 
Cc1nc2c(c(-c3ccc(Cl)cc3)n1)CN(C(=O)c1ccc(C(F)(F)F)cc1)CC2 | inconclusive: 25.1 µM [inhibitor, partial curve, poor fit] |  | 
Cn1ncc2c(C(=O)NCCc3ccccn3)cc(-c3cccc(C(F)(F)F)c3)nc21 | inconclusive: 25.1 µM [inhibitor, full curve] |  | 
COCc1noc([C@@H]2CN(Cc3cccc(Cl)c3F)C[C@H]2C(N)=O)n1 |  | inactive: -7.51% | 
CN(C)C(=O)c1ccc(-c2nnc3ccc(NC(=O)C4CCC4)cn23)cc1 |  | inactive: -28.4% | 
COc1cccc(CN2Cc3nc(-c4ccccc4)ccc3OCC2=O)c1 | inconclusive: 79.4 µM [inhibitor, partial curve, poor fit] |  | 
CCN(CC)C(=O)N1CCCCC1c1nc(CCOc2ccc(F)cc2)no1 (stereo not given) | inconclusive: 44.7 µM [inhibitor, partial curve, poor fit] |  | 
COc1cc(F)ccc1-c1cc2c(ccn2C)c(C(=O)NCc2cccnc2)n1 | inconclusive: 79.4 µM [inhibitor, partial curve, poor fit] |  | 
COc1ccc([C@H]2C[C@@H](O)[C@@H](O)[C@@H]2NC(=O)c2ccc(C#N)cc2)cc1 |  | inactive: -27.3% [at 174 µM] | 
Fc1cc(F)cc(Cc2nc3nccc(-c4ccccc4)n3n2)c1 |  | inactive: -29.9% | 
COc1ccc(Cc2nc3nccc(-c4ccc(OC)c(OC)c4)n3n2)cc1 | active: 14.1 µM |  | 
O=C(CN1CC2CC(C1)[C@H]1CCCC(=O)N1C2)NCCCN1CCCc2ccccc21 (stereo not given in full) | inconclusive: 70.8 µM [inhibitor, single point] |  | 
COc1ccc(CCNC(=O)CCn2ccn3nc4c(c3c2=O)CCCC4)cc1OC |  |  | inactive
COc1ccccc1C(=O)N1CCN(Cc2ccccc2-c2cccnc2)CC1 | inconclusive: 20 µM [inhibitor, partial curve] |  | 
CC(C)NC(=O)c1cc(-c2ccc(Cl)nc2)nc2c1cnn2C | active: 22.4 µM |  | 
O=C(CCCc1c[nH]c2ccccc12)NCC(=O)N1CCCCCCNC(=O)CC1c1ccccc1 (stereo not given) | inconclusive: 56.2 µM [inhibitor, partial curve, poor fit] |  | 
CC(NC(=O)c1coc(COc2ccc3c(c2)OCO3)n1)c1ccc2[nH]ccc2c1 (stereo not given) | inconclusive: 50.1 µM [inhibitor, partial curve, poor fit] |  | 

SMILES | Potency | activity change, negative = cytotoxicity | outcome
CC(C)Oc1ccccc1CN1C[C@@H](CO)[C@H](c2ccncc2)C1 | inconclusive: 39.8 µM [inhibitor, partial curve] |  | 
CC(C)CCN1CCC(N2CCN(S(=O)(=O)c3cc(F)cc(F)c3)CC2)C1=O (stereo not given) | inconclusive: 44.7 µM [inhibitor, partial curve, poor fit] |  | 
OCCCn1cnc(-c2ccccc2)c1-c1ccc(-c2ccn[nH]2)o1 | inconclusive: 50.1 µM [inhibitor, partial curve] |  | 
CCCn1ncc(NC(=O)c2cccc(CN3CCC[C@@H]3COC)c2)n1 |  | inactive: -8.02% | 
O=C1c2cnc(-c3cncnc3)nc2OCCN1c1cccc(C(F)(F)F)c1 | active: 39.8 µM |  | 
COc1ccc([C@H]2C[C@@H](O)[C@@H](O)[C@@H]2NC(=O)c2cc3ccccc3s2)cc1 | inconclusive: 50.1 µM [inhibitor, partial curve, poor fit] |  | 
O=[S+]([O-])(c1cccs1)N1CC(N2CCc3ccccc32)C1 | inconclusive: 35.5 µM [inhibitor, partial curve, poor fit] |  | 
O=C(NC1CCCN(c2cc(-c3ccc(Cl)cc3)[nH]n2)C1)c1ccc2c(c1)OCO2 (stereo not given) | inconclusive: 44.7 µM [inhibitor, partial curve, poor fit] |  | 
Clc1ccccc1C1Cn2cnc(-c3nc(-c4ccncc4)no3)c2CO1 (stereo not given) | inconclusive: 50.1 µM [inhibitor, partial curve, poor fit] |  | 
O=C(Cn1nc2n(c1=O)CCCCC2)Nc1cccc(Cl)c1 |  |  | inactive
Cc1ccc2nc(C(=O)N(C)Cc3cc(-c4cccnc4)no3)cn2c1 | inconclusive: 50.1 µM [inhibitor, partial curve, poor fit] |  | 
O=C(C1CCCN(c2nc(-c3ccccc3)nc3c2CCC3)C1)N1CCCNCC1 (stereo not given) | inconclusive: 79.4 µM [inhibitor, partial curve, poor fit] |  | 
COc1cccc(CN2C[C@@H](CO)[C@H](C(=O)NC3CC3)C2)c1OC |  | inactive: -0.0757% | 
O=C(CC1CCCN(c2cnn(CC3CC3)c(=O)c2)C1)NCc1cc(F)cc(F)c1 (stereo not given) | inconclusive: 39.8 µM [inhibitor, partial curve, poor fit] |  | 
COc1ccc2[nH]c(=O)c(CN(Cc3cnn(C)c3)C3CC3)cc2c1 |  | inactive: -14.1% | 
COc1ccc(C(=O)N[C@@H]2CN(Cc3ccccc3)C[C@H]2CO)cn1 | inconclusive: 28.2 µM [inhibitor, full curve, poor fit] |  | 
O=C(O)COc1ccc(-c2nccc3c2C(=O)N(Cc2cccc(C(F)(F)F)c2)CC(COc2ccc4cnccc4c2)O3)cc1 (stereo not given) | inconclusive: 70.8 µM [inhibitor, single point] |  | 
COC(=O)N[C@H]1[C@H](OC(=O)c2ccccc2)[C@@H]2O[C@H]1c1ccccc12 | inconclusive: 35.5 µM [inhibitor, partial curve, poor fit] |  | 
Cc1ccc(C)c(-c2cc3c(=O)n(CCNC(=O)c4ccccc4Cl)ccn3n2)c1 | active: 35.5 µM |  | 
O=C(Nc1ccc(Cl)cc1)N1CCC2(CC1)CCN(Cc1cccs1)c1ccccc1O2 | inconclusive: 17.8 µM [inhibitor, full curve, poor fit] |  | 
O=C(O)c1cccc(CN2CC(CNc3ccccc3)C3(C2)CN(c2ccccc2)C3)c1 (stereo not given) | inconclusive: 112 µM [inhibitor, single point] |  | 
